Data on 54 molecules can be found in PubChem BioAssay AID1346428 (National Center for Advancing Translational Sciences (NCATS), 2018).

The campaign covered roughly 48,000 compounds. About 1,200 (2.5%) were called active. Another 2% or so got no clear call; they are omitted.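 Rule for the calls: active = activation of at least 60% and not above a set upper limit (about 1 call in 100 departs from these limits); inconclusive = activation of 40% to 60%, or above that upper limit; inactive = activation under 40%.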 This is one part of the list.

Sequence of UniProt O75388 (O75388 whole entry, looked up): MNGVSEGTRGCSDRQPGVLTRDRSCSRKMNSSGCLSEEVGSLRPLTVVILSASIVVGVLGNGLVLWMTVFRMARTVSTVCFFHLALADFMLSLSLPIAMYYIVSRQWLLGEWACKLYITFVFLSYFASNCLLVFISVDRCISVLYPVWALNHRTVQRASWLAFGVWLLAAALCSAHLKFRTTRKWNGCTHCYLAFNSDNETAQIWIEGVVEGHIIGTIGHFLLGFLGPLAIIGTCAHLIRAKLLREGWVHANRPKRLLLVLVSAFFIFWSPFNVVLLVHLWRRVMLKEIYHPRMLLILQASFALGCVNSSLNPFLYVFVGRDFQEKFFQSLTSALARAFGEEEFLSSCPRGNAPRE

The assay addresses Probable G-protein coupled receptor 32 (Homo sapiens) (UniProt O75388). Nature of the assay: qHTS for Agonists of Human Resolvin D1 Receptor DRV1. Note: 0% is about no effect. Conditions: CHO-K1 GPR32 beta-arrestin PathHunter luminescence, 90 min; at 76.9 µM; stronger effect = higher value; zero percent set by DMSO-only wells. In outline:
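CHO-K1 cells stably expressing ProLink-tagged GPR32 and Enzyme Activator-tagged beta-arrestin were seeded at 2,500 cells/well overnight, exposed to compounds for 90 min at 37 °C, then read by beta-Gal complementation chemiluminescence after 1 h detection reagent.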
A general note: In qHTS, concentration-response curves come from the screen itself.
With `CCCN(C(=O)CCNC(=O)Cn1cnc2ccccc2c1=O)c1cccc(C)c1`, the activation is inactive: 12%.

`CC(C)CN(CCNC(=O)c1cn(C)c2ccc(S(=O)(=O)N3CCCC3)cc2c1=O)CC(C)C`: the activation is inactive: 4.64%.

With `Cc1nn(-c2ccc(N3CCCCC3)nn2)c(C)c1CCC(=O)NCc1ccc(Cl)cc1`, the activation is inactive: -22.3%.

With `COCCCNC(=O)C1CCN(c2cc(C)nc3c(-c4ccc(Cl)cc4)c(C)nn23)CC1`, the activation was inactive: -1.68%.

As for `CCN(CC)CCCNC(=O)c1ccc2c(Cl)c3c(nc2c1)CCCC3`, the activation was inactive: 15.4%.

For `CCc1nn2c(=O)cc(COC(=O)C(CC)c3ccccc3)nc2s1` (centres undefined), the activation is inactive: -8.97%.

`CCOC(=O)c1c(Oc2ccc(C(C)=O)cc2)nnc(-c2ccccc2)c1-c1ccccc1`: the activation was inactive: -21.5%.

As to `CCOC(=O)Cn1c(=O)n(-c2ccccc2OC)c2nc(-c3ccc(C(C)C)cc3)nc(C(N)=O)c21`, the activation was inactive: 29.4%.

With `CC(C)CC1Nc2ccc(C(=O)NCCCOC(C)C)cc2NC1=O` (centres undefined), the activation was inactive: -11.3%.

As for `COc1ccc(C(=O)NCCn2cc(SCC(=O)Nc3ccc4c(c3)OCCO4)c3ccccc32)cc1OC`, the activation was inactive: 34.2%.

As to `CCCNC(=O)CSc1nc(-c2ccc(OC)cc2)cc(C(F)(F)F)n1`, the activation was inactive: -8.24%.

`COc1ccccc1N1CCN(CC(O)COc2cc(OC)c(OC)c(OC)c2)CC1` (centres undefined): the activation is inactive: -3.91%.

Consider `c1ccc(CN2CCC3(CCCc4ccccc43)CC2)cc1`, for which the activation is inactive: -23%.

Consider `CNCC[C@@H](Oc1ccccc1C)c1ccccc1`, for which the activation was inactive: -12.4%.

As for `O=C(CC1N=C2c3ccccc3N=C(SCC(=O)Nc3ccc(F)cc3)N2C1=O)NCc1cccs1` (centres undefined), the activation is inactive: -11.9%.

As to `O=C(NCc1ccccc1)c1ccc2oc(=O)n(Cc3ccccc3)c2c1`, the activation was inactive: 12.7%.

With `COc1ccc(CC(=O)N2CCc3cc(OC)c(OC)cc3C2COc2ccc(F)cc2)cc1OC` (centres undefined), the activation was inactive: -4.8%.

For the molecule `COc1ccc2c(CNCc3cccs3)c(C(=O)O)n(Cc3ccccc3F)c2c1`, the activation is inactive: -1.94%.

For the molecule `CN(C)c1ccc(NC(=O)CSC2=Nc3ccccc3C3=NC(CCC(=O)NCc4cccs4)C(=O)N23)cc1` (centres undefined), the activation is inactive: -32.1%.

With `NS(=O)(=O)c1ccc2nc(NC(=O)COc3ccc(Cl)cc3Cl)sc2c1`, the activation is inactive: 2.42%.

For the molecule `COCCNC(=O)c1ccc2c(c1)N=C(C)c1cc(C)ccc1S2`, the activation was inactive: 10.4%.

Regarding `Cc1c(C(=O)NC(C)c2ccccc2)sc2nc3n(c(=O)c12)CCCC3` (centres undefined), the activation was inactive: -14.1%.

With `Cn1c(SCC(=O)Nc2nc3ccccc3s2)ncc(C(=O)Nc2ccc(F)cc2)c1=O`, the activation is inactive: -4.78%.

With `COc1cccc(C(=O)Nc2cccc(C(=O)OCc3cc(=O)n4c(C)csc4n3)c2)c1`, the activation is inactive: -1.97%.

As for `CC1CCN(C(=O)c2cccc(NC(=O)c3nsc4ccccc34)c2)CC1`, the activation was inactive: -4.82%.

With `CCOC(=O)COc1ccc(C)cc1C(=O)c1ccn2nc(-c3ccc(F)cc3)cc2n1`, the activation was inactive: -8.01%.

Turning to `COc1ccc(CCNC(=O)C2COc3ccccc3C2)cc1OC` (centres undefined), the activation is inactive: -4.75%.

Regarding `COc1ccc(CCNC(=O)Cc2c(C)c3cc4c(C)coc4c(C)c3oc2=O)cc1`, the activation is inactive: -26.2%.

Regarding `CCCCSc1nnc2c(n1)OC(C)N(C(C)=O)c1ccccc1-2` (centres undefined), the activation is inactive: 6.11%.

In the case of `CCc1ccccc1NC(=O)CC1Sc2ccc(C(F)(F)F)cc2NC1=O` (centres undefined), the activation is inactive: -2.43%.

Turning to `O=C(NCCc1ccccc1)c1ccc2c(c1)N(Cc1ccc(F)cc1)C(=O)c1ccccc1S2`, the activation is inactive: -20.9%.

Consider `COc1ccc(C(=O)NC(c2ccc(Cl)cc2)c2cc(Cl)c3cccnc3c2O)cc1` (centres undefined), for which the activation was inactive: -41%.

Regarding `Cn1c(Oc2ccc(Cl)cc2)nc2c1c(=O)n(Cc1ccc(F)cc1)c(=O)n2C`, the activation was inactive: 16.5%.

In the case of `Cc1cc(C)cc(NC(=O)CCC(=O)N2CCSc3ccccc32)c1`, the activation was inactive: -16.7%.

For the molecule `COc1cc(Cl)c(C)cc1NC(=O)c1cnc(N2CCOCC2)c2ccccc12`, the activation is inactive: -12.1%.

Consider `Cn1c(SCc2ccc(Br)cc2)nc2c([nH]c3ccccc32)c1=O`, for which the activation is inactive: 1.1%.

Take `Cc1ccc(S(=O)(=O)NCCc2csc(-c3cccc(F)c3)n2)cc1`: the activation is active: 80%.

As for `Cc1ccc(Nc2ccc(N3CCN(C(=O)c4ccc([N+](=O)[O-])cc4)CC3)nn2)cc1`, the activation was inactive: 3.82%.

As for `Cc1cccn2c(=O)c3cc(C(=O)Nc4ccc(Cl)c(Cl)c4)sc3nc12`, the activation is inactive: 3.27%.

For the molecule `Cc1ccc(C)c(NS(=O)(=O)c2cc3c4c(c2)C(C)C(=O)N4CCC3)c1` (centres undefined), the activation is inactive: -9.02%.

For `O=C(c1ccc(Nc2nc3ccccc3n3nnnc23)cc1)N1CCN(c2cccc(C(F)(F)F)c2)CC1`, the activation is inactive: -2.73%.

`CCOC(=O)c1cccc(NS(=O)(=O)c2cc3c(cc2C)NC(=O)CO3)c1`: the activation is inactive: -5.39%.

`Cc1ccc(NC(=O)CN2C(=O)CC(C)Sc3ccccc32)c(C)c1` (centres undefined): the activation is inactive: -19.6%.

For the molecule `Cc1nc2ccn(Cc3ccco3)c(=O)c2cc1C(=O)NCc1ccc(F)cc1`, the activation was inactive: -5.26%.

For the molecule `Cc1c(Cl)cccc1-n1ncc(C(=O)N2CCOCC2)c1C1CCN(C(=O)OC(C)(C)C)CC1`, the activation is inactive: -15.1%.

In the case of `NS(=O)(=O)C#Cc1ccccc1`, the activation is inactive: -1.33%.

For `Cc1oc2ccc(O)c(CN3CCOCC3)c2c1C(=O)Nc1cccc(Cl)c1C`, the activation was inactive: 18.4%.

With `Cc1ccc(NC(=O)C2CCN(c3nnc(C)c4c(C)n(-c5ccccc5)nc34)CC2)cc1Cl`, the activation was inactive: -10.1%.

As for `CCNC(=O)Cn1nc(C)n2c(cc3c(OC)cccc32)c1=O`, the activation is inactive: -4.44%.

`Cc1ccc(OCC(=O)OCc2cc(=O)n3nc(C4CC4)sc3n2)cc1`: the activation was inactive: 7.4%.

For `Cc1cc(C)n(C(C)CC(=O)NCc2ccc(Cl)cc2)n1` (centres undefined), the activation was inactive: -10.1%.

As to `Cc1ccc(OCCCSc2nc(-c3ccc(C(C)(C)C)cc3)nc3cc(=O)[nH]n23)cc1C`, the activation was inactive: -21.2%.

Turning to `COc1ccc(NC(=O)Cn2cc(S(=O)(=O)Cc3ccc(F)cc3)c3ccccc32)cc1OC`, the activation is inactive: 18.5%.

For `CCOC(=O)C1CCC(CN(Cc2cccc(Br)c2)S(=O)(=O)c2ccc(Cl)cc2)CC1` (centres undefined), the activation is inactive: -1.26%.
